# Hit rate of the full screen: of about 220,000 compounds, about 16,000 (7.3%) were called active. Inconclusive means that the source gave no clear call. Such entries were picked first, then a sample of the others. Calls follow the shape of the dose curve; as a rule, active = well fitted inhibition curve with a large enough effect (not every such curve was filed as active); inconclusive = small, poorly fitted or top-dose-only effect, or another doubt; inactive = no such curve, though single readings can be large or run the other way. Potencies of inconclusive entries are left out as doubtful fits.
# Target: Aldehyde dehydrogenase 1A1 (Homo sapiens) (UniProt P00352)
# Chain of UniProt P00352 (P00352 whole entry, looked up): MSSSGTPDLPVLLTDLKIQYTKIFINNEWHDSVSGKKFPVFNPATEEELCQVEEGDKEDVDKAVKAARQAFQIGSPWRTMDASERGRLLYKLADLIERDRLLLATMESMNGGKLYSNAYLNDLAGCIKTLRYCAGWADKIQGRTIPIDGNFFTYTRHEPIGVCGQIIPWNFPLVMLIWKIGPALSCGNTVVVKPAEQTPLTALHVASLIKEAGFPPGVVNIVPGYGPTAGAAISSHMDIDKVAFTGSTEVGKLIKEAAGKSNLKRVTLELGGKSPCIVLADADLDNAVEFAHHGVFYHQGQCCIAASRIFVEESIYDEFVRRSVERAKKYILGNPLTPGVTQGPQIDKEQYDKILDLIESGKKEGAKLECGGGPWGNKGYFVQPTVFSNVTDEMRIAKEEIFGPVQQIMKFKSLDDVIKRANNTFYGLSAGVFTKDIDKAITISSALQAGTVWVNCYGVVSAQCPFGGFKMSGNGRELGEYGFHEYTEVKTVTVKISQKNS
# Experiment: qHTS Assay for Inhibitors of Aldehyde Dehydrogenase 1 (ALDH1A1);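 as to activity, negative = inhibition: plate controls were no enzyme wells and a reference inhibitor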
# Conditions: Purified ALDH1A1, NADH fluorescence, propionaldehyde substrate; series mostly up to 75.3 µM; activity, negative = inhibition: at the top concentration
# Potency is read from the fitted curve at half-maximal effect; tags tell the direction and shape of the fitted curve.
SMILES,"activity, negative = inhibition",Potency
CCn1c(CCCOc2ccc(Cl)cc2Cl)nnc1SCC(=O)Nc1cccc(F)c1,inactive: 4.85%,
COc1ccc(Oc2c(C)oc3c(CN(C)C)c(O)ccc3c2=O)cc1,,"inconclusive [inhibitor, partial curve]"
COc1ccc(CCNC(=O)C2CCN(S(=O)(=O)N3CCCCCC3)CC2)cc1OC,,active: 7.94 µM
Clc1ccc(/C=C/c2ncc3ccccn23)cc1,inactive: -2.54%,
O=C(/C=C/c1ccc(Br)cc1)NC(=O)c1ccccc1O,inactive: 2.17%,
Cc1ccc2nc(-c3cc(N)cc(N)c3)oc2c1,,"inconclusive [inhibitor, partial curve]"
C=CCNc1ncnc2c1cnn2-c1cccc(C)c1,,"inconclusive [inhibitor, single point]"
CN(Cc1cnccn1)C(=O)CC1C(=O)NCCN1Cc1cccc(Oc2ccccc2)c1 (stereo unspecified),inactive: -2.31%,
CCOC(=O)N1CCC(NC(=O)c2cnn3c2NC(c2ccco2)CC3C(F)(F)F)CC1 (stereo unspecified),,"inconclusive [inhibitor, single point]"
CCC1Cc2c(nc(N)c3c(N)nc(N4CCOCC4)c(C#N)c23)O1 (stereo unspecified),,"inconclusive [inhibitor, partial curve]"
O=c1nc2n(c3cccc(Cl)c13)CCCCC2,inactive: 12.3%,
CN(C)/C=C(/C(=O)c1ccc(Cl)cc1)S(=O)(=O)c1ccc(Cl)cc1,inactive: -1.27%,
Cc1cc(C)n(CC(O)CN(c2cccc([N+](=O)[O-])c2)S(=O)(=O)c2ccccc2)n1 (stereo unspecified),inactive: 1.1%,
CCOC(=O)N1CCN(C(=O)COc2cccc3c2CCN(Cc2cccc(C)c2)C3=O)CC1,inactive: 2.75%,
CCCCC(=O)N(Cc1nc2sc(C)c(C)c2c(=O)[nH]1)C1CCCC1,,"inconclusive [inhibitor, partial curve]"
COc1ccc(OC)c(C2N(c3ccccn3)C(=O)C3CCCN32)c1 (stereo unspecified),,"inconclusive [inhibitor, partial curve]"
Cc1cccc(NC(=O)NNC(=O)c2sccc2-n2cccc2)c1,,"inconclusive [inhibitor, partial curve]"
C[C@@H]1C(c2cccc(Cl)c2)=NN(c2ccc(Br)cc2)[C@H]1C(=O)N1CCOC1=O,,"inconclusive [inhibitor, partial curve]"
COc1ccc2nc3ccccc3nc2c1NC(=O)c1ccc(Br)cc1,,"inconclusive [inhibitor, single point]"
CC1OC(OCC2OC(Oc3c(-c4ccc(O)cc4)oc4cc(O)cc(O)c4c3=O)C(O)C(O)C2O)C(O)C(O)C1O (stereo unspecified),inactive: 0.757%,
N#CCC(=O)Nc1ccc(C(=O)OCC(=O)N(Cc2ccccc2)C2CCS(=O)(=O)C2)cc1 (stereo unspecified),,"inconclusive [inhibitor, partial curve]"
COc1cc(/C=C/C(=O)O)ccc1OS(=O)(=O)c1ccc(C)cc1,,"inconclusive [inhibitor, partial curve, poor fit]"
COC(=O)C/C=C\[C@@H](C)[C@@H](/C=N\O[C@@H](C)CN1CCCCc2nc(C)c(C)cc21)OC,inactive: 5.06% [at 13.5 µM],

SMILES,"activity, negative = inhibition",Potency
CCOC(=O)N1CCN(c2ccccc2OC)CC1,inactive: 0.286%,
CCOC(=O)CNc1c(-c2ccc(Cl)cc2)nc2cnccn12,,"inconclusive [inhibitor, partial curve]"
CC1CC=C2C(C#N)=C(N)C(C#N)(C#N)C(c3cccs3)C2C1 (stereo unspecified),,"inconclusive [inhibitor, single point]"
COc1ccccc1NC(=O)c1ccc(NC(=O)COC(=O)C2CCCCC2)cc1,,"inconclusive [inhibitor, single point]"
CC12CCC(=O)N1C(C(=O)O)Cc1c2[nH]c2ccccc12 (stereo unspecified),,"inconclusive [inhibitor, single point]"
CC(=O)c1cccc(N(C(=O)c2ccco2)C(C(=O)NC2CCCC2)c2ccncc2)c1 (stereo unspecified),inactive: -9.39%,
O=C(COc1ccccc1Cl)NC(=O)NC1CCCC1,,"inconclusive [inhibitor, partial curve]"
O=C(c1csc2ccccc12)n1cccn1,,active: 11.2 µM
O=C(CSc1nnc(Cc2cccs2)n1Cc1ccco1)Nc1ccc(Cl)cc1Cl,,"inconclusive [inhibitor, single point]"
COc1ccc(-n2c(SCC(=O)N3CCCCC3)nnc2-c2cccnc2)cc1,,"inconclusive [inhibitor, single point]"
COC(=O)c1cc(OC)c(OC)cc1NC(=O)Nc1cccc(C(C)=O)c1,inactive: -8.14%,
Cc1cc(OCc2ccc(C(=O)NN=C3CCCC3)cc2)ccc1Cl,,"inconclusive [inhibitor, full curve]"
Cc1cc(Nc2ccccc2)n(-c2ccccc2)n1,inactive: -1.38%,
COC(=O)c1ccc(-c2sc3nc(N4CCOCC4)c4c(c3c2N)CC(C)(C)OC4)o1,,"inconclusive [inhibitor, partial curve]"
COc1cccc(NC(=O)CSc2nc3c(c(-c4ccco4)c2C#N)CCCC3)c1,,"inconclusive [inhibitor, single point]"
COc1cccc(OCCNS(=O)(=O)c2cccc([N+](=O)[O-])c2)c1,,"inconclusive [inhibitor, single point]"
O=C(O)c1cc2ncc(-c3[nH]ncc3[N+](=O)[O-])cn2n1,inactive: -5.16%,
Nc1ccc2c(c1)C(=O)c1ccccc1C2=O,,"inconclusive [inhibitor, full curve]"
Brc1cccc(CNCc2cccs2)c1,inactive: 7.88%,
Cc1ccccc1OCC(O)Cn1c(N2CCN(c3ccccc3)CC2)nc2c1c(=O)[nH]c(=O)n2C (stereo unspecified),,"inconclusive [inhibitor, single point]"
O=C(O)c1cc2cccc(S(=O)(=O)N3CCOCC3)c2cc1O,,"inconclusive [inhibitor, single point]"
CCn1c(SCc2ccc(C)cc2)nnc1C1CCN(S(=O)(=O)c2ccc(OC)cc2)CC1,inactive: -18.9%,
CCOC(=O)COc1c(OC)cc(Cl)cc1C1Nc2ccccc2C(=O)N1c1cccc(C)c1 (stereo unspecified),,"inconclusive [inhibitor, partial curve]"
